Test results published in PubChem BioAssay AID463173 (ICCB-Longwood Screening Facility, Harvard Medical School, 2010).
The whole screen tested about 52,000 compounds, of which about 1,700 (3.3%) were called active. Rule as the data show it: active = survival mostly below about 52% (no sharp cut-off); inactive = mostly above about 56%. The list shows a part of the results.

Tested on: Wild type
Assay: growth inhibition of S. aureus wild type versus tarO mutant, primary screen, teichoic acid synthesis inhibitors, RN4220, OD600 (AID 463173)
Settings: S. aureus RN4220 wild type/DeltatarO growth, OD600, 18 h, hits give low values, screened at 18.75 µg/mL (by protocol)

Row | Structure (SMILES) | survival
1 | Cc1cc(SCC(N)=O)nc2ccccc12 | inactive: 110%
2 | CC(C)N(Cc1nc(-c2ccc(Cl)cc2)no1)C(=O)c1ccc(C(C)(C)C)cc1 | active: 0%
3 | Cc1ccccc1Cn1c(SCc2ccc(C(=O)NC3CCCCC3)cc2)nc2ccncc21 | inactive: 92%
4 | COc1ccc(C)cc1C(=O)CCC(=O)O | inactive: 115%
5 | Cc1nc(SCc2cccc(Cl)c2)nc2c1CCCC2 | active: -8%
6 | CC(=O)N1c2ccc(S(=O)(=O)N3CCCCCC3)cc2CC1C(=O)NCc1cccc(C)c1 (stereo not given) | inactive: 92%
7 | COc1cc(NC(=O)Cn2c(=O)cc(C)c3c(C)nn(-c4ccc(C)cc4)c32)cc(OC)c1 | inactive: 113%
8 | CCOc1ccc(-c2cc3nc(C4CCN(C(=O)OC(C)(C)C)CC4)c(C(=O)Nc4cccc(CC)c4)cn3n2)cc1 | inactive: 72%
9 | Fc1ccc(NCc2ccccc2-c2nnc(-c3ccccc3Cl)o2)cc1 | inactive: 89%
10 | Cc1ccc(CNc2nnc(C)c3nnn(Cc4ccc(F)cc4)c23)cc1 | inactive: 96%
11 | CC(=O)Nc1ccc(I)cc1C(=O)O | inactive: 109%
12 | CC1=C(c2ccc(Cl)cc2)S(=O)(=O)N=C1N1CCN(c2cccc(C)c2C)CC1 | inactive: 91%
13 | Cc1cccc(NC(=O)CSc2nc3ccc(NC(=O)c4ccccc4)cc3s2)c1 | inactive: 84%
14 | COc1cccc(CN2C(=O)c3ccccc3Sc3ccc(C(=O)OCc4ccco4)cc32)c1 | inactive: 72%
15 | Cc1ccc(-n2ccn(CC(=O)NCCc3ccccc3)c(=O)c2=O)cc1C | inactive: 90%
16 | CCCCOc1ccc(C(=O)N(Cc2ccc(N(C)C)cc2)Cc2ccco2)cc1 | inactive: 80%
17 | CC(C)(C)c1ccc(-c2nc(NC(=O)CSc3ncnc4sc5c(c34)CCCC5)ns2)cc1 | inactive: 73%
18 | CCSc1nc2n(n1)C(c1ccc(Cl)cc1Cl)C(C(=O)Nc1ccccc1C)=C(C)N2 (stereo not given) | inactive: 76%
19 | Cc1ccc(-n2ncc3c(NCc4ccccc4)ncnc32)cc1Cl | active: -6%
20 | COc1ccc(N2CC(NC(=O)/C=C\c3ccc4c(c3)OCO4)CC2=O)cc1OC (stereo not given) | inactive: 80%
21 | CCc1ccc(NC(=O)CSc2nccn2-c2ccc(F)cc2)cc1 | inactive: 136%
22 | O=C(c1ccco1)N(Cc1cccnc1)c1nc2c(F)cc(F)cc2s1 | inactive: 71%
23 | CCc1ccccc1NC(=O)Cn1cc(S(=O)(=O)N2CCCC2)c(S(=O)(=O)N2CCCC2)c1 | inactive: 68%

Row | Structure (SMILES) | survival
24 | Cc1cccc(-n2c(SCC(N)=O)nc3ccccc3c2=O)c1 | inactive: 99%
25 | Cc1ccccc1CNC(=O)c1ccc2nc(SCc3ccc(F)cc3)n(C)c2c1 | inactive: 59%
26 | CCOCCCNC(=O)C(c1ccccc1)N(Cc1ccc2c(c1)OCO2)C(=O)c1ccc(NC(C)=O)cc1 (stereo not given) | inactive: 70%
27 | O=C(NCCNCc1ccco1)c1ccccc1 | inactive: 115%
28 | COc1ccccc1NC(=O)CSc1nncn2c1cc1sccc12 | inactive: 96%
29 | CCC(=O)C1=C(c2ccc(F)cc2)N(C(=O)CC)n2cnnc2S1 | inactive: 133%
30 | Cc1ccccc1CN1C(=O)c2ccccc2S(=O)c2ccc(C(=O)NCc3ccc(Cl)cc3)cc21 (stereo not given) | inactive: 92%
31 | Cc1ccc2cccc(NC(=O)c3ccc(OC(C)C)cc3)c2n1 | inactive: 106%
32 | CCc1ccccc1NC(=O)CN(c1ccccc1)S(=O)(=O)c1ccsc1C(=O)OC | inactive: 131%
33 | O=C(NCc1ccc2c(c1)OCO2)c1ccc2c(c1)N(Cc1ccccc1F)C(=O)c1ccccc1S2 | inactive: 69%
34 | CN(CCC(N)=O)Cc1ccccc1 | inactive: 107%
35 | CS(=O)(=O)N1CCSC1c1ccc(Cl)cc1Cl (stereo not given) | inactive: 121%
36 | Cc1c(Cl)cccc1NC(=O)c1ccc2c(c1)CCCN2S(C)(=O)=O | inactive: 90%
37 | CC(C)c1ccc(OCC(=O)NCCS(=O)(=O)N2CCN(c3ccc(F)cc3)CC2)cc1 | inactive: 71%
38 | Cc1ccc(CNC(=O)Nc2cc(C(=O)NCc3ccc(C(C)C)cc3)ccc2N2CCCC2)cc1 | inactive: 71%
39 | CC(C)(C)OC(=O)N1CCC(c2c(C(=O)NCCN3CCc4ccccc4C3)cnn2-c2ccc(F)cc2)CC1 | inactive: 74%
40 | CCCCOc1ccc(C(=O)Nc2ccc(-c3cc4ccccc4oc3=O)cc2)cc1 | inactive: 75%
41 | CCN1C(=O)c2ccccc2Sc2ccc(NC(=O)N3CCN(c4cc(C)ccc4C)CC3)cc21 | inactive: 84%
42 | CCOC(=O)c1ccc(NC(=O)C(CC)Sc2nc3ccncc3[nH]2)cc1 (stereo not given) | inactive: 136%
43 | Cc1cc(C)cc(-n2c(C)cc(C(=O)C(=O)Nc3ccccc3F)c2C)c1 | inactive: 92%
44 | COc1ccccc1C(=O)N1c2ncnn2C2(CCCCC2)[C@@H]2CCCC[C@@H]21 | inactive: 78%
45 | COc1ccc(Cn2c(C(=O)O)c(CNC3CCCC3)c3ccc(OC)cc32)cc1 | inactive: 91%
46 | CCn1c(=O)cc(SCC(=O)NCc2cccc(Cl)c2)c2ccccc21 | inactive: 60%

Row | Structure (SMILES) | survival
47 | C=CCn1c(=N)c(C(N)=O)cc2c(=O)n3ccccc3nc21 | inactive: 105%
48 | CSc1nc(Nc2ccc(F)cc2)cc(-c2ccccc2)n1 | active: -2%
49 | CCOc1ccc(-c2nn(-c3ccccc3)cc2C2NC(=O)NC(C)=C2C(=O)OC(C)C)cc1 (stereo not given) | inactive: 89%
50 | CCOc1ccc(-c2nnc(SCC(=O)Nc3cccc(OC)c3)nc2-c2ccc(OCC)cc2)cc1 | active: -3%
51 | O=C(NCC(c1ccc(Cl)cc1)N1CCOCC1)c1ccccc1F (stereo not given) | inactive: 91%
52 | COc1cccc(C2CC(=O)Nc3c2c(=O)[nH]c2nc4ccccc4n32)c1 (stereo not given) | inactive: 151%
53 | O=C(COc1ccc([N+](=O)[O-])cc1)Nc1nc2c(s1)CCCC2 | inactive: 101%
54 | COc1ccc(C(=O)NCC(c2ccc3c(c2)OCO3)N2CCN(c3ccccc3F)CC2)cc1 (stereo not given) | inactive: 77%
55 | Cc1ccccc1-c1nnn(CC(=O)Nc2sc3c(c2C#N)CCC(C(C)(C)C)C3)n1 (stereo not given) | inactive: 78%
56 | CCc1ccc(NC(=O)Cn2c(=O)n(CCCCC(=O)NCCc3ccc(Cl)cc3)c(=O)c3ccccc32)cc1 | inactive: 98%
57 | O=C1CCCc2cc(S(=O)(=O)N3CCCC(C(=O)NCc4ccc(Cl)cc4)C3)ccc2N1 (stereo not given) | inactive: 68%
58 | COc1cc(OC)cc(-c2nc(-c3ccc4c(c3)[nH]c(=O)n4C)no2)c1 | inactive: 73%
59 | Cc1ccc2ncc(C(=O)Nc3ccc(OC(F)(F)F)cc3)c(=O)n2c1 | inactive: 88%
60 | O=c1[nH]c2ccc(NCc3ccc(-c4ccc(Br)cc4)o3)cc2[nH]1 | inactive: 92%
61 | CCOC(=O)c1c(NC(=O)c2nc(S(C)(=O)=O)ncc2Cl)sc(C(C)=O)c1C | inactive: 15%
62 | Cc1ccc2c(c1)nnn2C1CCN(C(=O)Nc2ccc(C#N)cc2)CC1 | inactive: 111%
63 | Cc1ccc(-c2cc(C(=O)NCc3ccccc3Cl)c3ccccc3n2)cc1C | inactive: 54%
64 | O=C(Nc1ccccc1C(F)(F)F)n1ncc2cc(Cl)ccc21 | inactive: 105%
65 | COc1ccc2cc3c(N)nn(C(=O)c4ccc(OC)c(OC)c4)c3nc2c1 | inactive: 137%
66 | COc1cccc(CNC(=O)C2CCN(S(=O)(=O)c3ccc4c(c3)CCCN4C(C)=O)CC2)c1 | inactive: 132%
67 | Cc1ccc2c(c1)N(CCCC(=O)Nc1cccc(C(F)(F)F)c1)C(=O)CO2 | inactive: 83%
68 | CCOC(=O)c1[nH]c2ccccc2c1NC(=O)c1ccc(Br)cc1 | inactive: 111%
69 | O=C(Nc1nncs1)C1c2ccccc2Oc2ccccc21 | inactive: 110%

Row | Structure (SMILES) | survival
70 | CCOc1ccc(-c2nc3c(c(SCC(=O)N4CCCCC4)n2)Cc2cccc(OC)c2O3)cc1 | inactive: 75%
71 | CCCCN1C(=O)C(O)(CC(=O)c2ccc(C(C)(C)C)cc2)c2ccccc21 (stereo not given) | active: 3%
72 | COc1cc(NC(=O)Cn2cc(C(=O)c3ccc(F)cc3)c(=O)c3ccc(C)nc32)cc(OC)c1 | inactive: 91%
73 | Cc1ccc2nc3c(cc(C#N)c(=O)n3-c3nnc(SCc4ccccc4)s3)c(=O)n2c1 | inactive: 101%
74 | CCOc1ccc(NC(=O)c2ncoc2-c2ccco2)cc1 | inactive: 80%
75 | Cc1cccc(CSc2ncc(Cl)c(C(=O)Nc3nc4ccc(F)cc4s3)n2)c1 | inactive: 77%
76 | CN(C(=O)c1cccc(C#N)c1)c1nnc(C2CCOC2)s1 (stereo not given) | inactive: 111%
77 | COc1cccc(CNC(=O)c2ccc(-n3c(C)cc4c3CCC(C)C4)cc2)c1 (stereo not given) | inactive: 66%
78 | CC(C)NC(=O)c1ccc(NC(=O)N2CCCCc3ccccc32)cc1 | inactive: 82%
79 | CCOc1cc(C#N)c(NC(=O)Cn2nnc(-c3ccc(C)cc3)n2)cc1OCC | inactive: 81%
80 | O=C(Cn1c(=O)nc(-c2ccccc2)c2cc(Cl)ccc21)Nc1ccc(F)c(Cl)c1 | inactive: 84%
81 | Cc1ccc(NC(=O)c2cnn3c2NC(c2ccccc2)=CC3c2ccccc2)cc1 (stereo not given) | inactive: 73%
82 | CCCn1c2ccccc2c2nnc(SCC(=O)Nc3cccc(C(C)=O)c3)nc21 | inactive: 83%
83 | CCN(Cc1ccccc1)C(=O)c1cnn(-c2ccc(F)cc2)c1-n1cccc1 | inactive: 71%
84 | CCC(Sc1nnc(C)n2c1cc1occc12)C(=O)Nc1ccccc1OC (stereo not given) | inactive: 90%
85 | CC(=O)c1sc(N2C(=O)c3oc4ccccc4c(=O)c3C2c2ccc(C)cc2)nc1C (stereo not given) | inactive: 92%
86 | CCNc1nc(NC(N)=S)nc(NC(C)(C)C)n1 | inactive: 112%
87 | CC(=O)c1ccc(NC(=O)Cn2nc(N3CCN(c4ccccc4)CC3)ccc2=O)cc1 | inactive: 71%
88 | COc1ccccc1OC(C)C(=O)Nc1cccc(-c2nc3ccccc3o2)c1 (stereo not given) | active: 3%
89 | CN1CCN(C(=O)/C=C/c2ccccc2)CC1 | inactive: 94%
90 | COc1ccccc1CNC(=O)CSC1=Nc2ccccc2N=C(c2ccc(F)cc2)C1 | inactive: 73%
